The assay relates to NCI-H322M lung. The assay can be described thus: growth of human tumour cells (NCI), 48 h.

The structures appear in SMILES notation.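 The compound was tested at five concentrations on cells cultured in 96-well plates, with a 48-hour exposure period. The concentration for 50% growth inhibition is given as GI50. Definition used: TGI = concentration required for complete inhibition of growth.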 Numbered stars: 1 amine (or outer) side, 2 acyl side, 3 side chain; on linkers, the order of the positions; unused ones are H or OH. Bridge positions count the residues as written; N and C are the ends. Square brackets hold non-standard residues; d marks the D form. Peptide text beside a SMILES is read from it. * marks the point of attachment. Phe(3,5-F2) = N[C@@H](Cc1cc(F)cc(F)c1)C(=O)O; Pro(4R-Me) = C[C@H]1CN[C@H](C(=O)O)C1; aThr = C[C@H](O)[C@H](N)C(=O)O; Pip = O=C(O)[C@@H]1CCCCN1; X8 = Fc1cc(C2CC2)ccc1N*; CO = O=C([*:1])[*:2]

In the case of `Nc1nc(Cl)cc(NCC2(CO)CC(=O)C2)n1`, the TGI was more than 100 µM.
The same measure, in the same setting: then `O=C(Nc1ccccc1)c1c(O)[nH]c(=S)[nH]c1=O`, with 125 µM; and `S=C1Nc2ccccc2SC1c1ccccc1` (stereo not given), with more than 100 µM.
For the compound `COC(=O)c1ccccc1CC1Cc2ccc3c(c2C1=O)CCCC3` (stereo not given), the TGI is more than 100 µM.
For `CCn1c(C)nn2c(=O)c3ccccc3nc2c1=O`, the TGI is more than 100 µM.
`CN(C)C(=S)N=C(Nc1ccccc1)Nc1ccccc1` yielded a TGI of more than 100 µM.
In the case of `CCOC(=O)c1cn2c(n1)sc1cccc(C)c12`, the TGI was more than 100 µM.
The compound `CC1(C)OC(=O)N(c2ccccc2)C12C=Cc1cc([N+](=O)[O-])cc([N+](=O)[O-])c1O2` (stereo not given) displayed a TGI of more than 100 µM.
As to `Cc1ccc2c(C)c3c(ccc4ccccc43)c[n+]2c1`, the GI50 was 16.6 µM and the TGI stood at 53 µM.
`C[N+](C)(C)CC(=O)N/N=C(/CC(=O)CC(C1=C(O)c2ccccc2OC1)c1ccccc1)C(=O)Nc1cccc(Cl)c1` (stereo not given) yielded a TGI of more than 100 µM.
Same read-out and setting: then `Cc1ccc(N=NC(=Nc2ccccc2)c2ccc(N(CCC#N)CCC#N)cc2)cc1`, with more than 100 µM.
`O=C(O)CCNCCCNCCC(=O)O` displayed a TGI of more than 100 µM.
On to `CC(C)=CCC\C(C)=C/C=C/C(C)=C\C=C\C(C)=C/C=C/C=C(C)\C=C\C=C(C)/C=C/C=C(/C)CCC=C(C)C`, for which the TGI was more than 100 µM.
In the case of `C[C@@H]1C[C@H]2C(=O)O[C@@H](C)[C@H](NC(=O)[C@H](Cc3cc(F)cc(F)c3)NC(=O)Nc3ccc(C4CC4)cc3F)C(=O)N3CCC[C@H]3C(=O)N3CCCC[C@H]3C(=O)N[C@@H](C)C(=O)N2C1` ({X8-CO}-[Phe(3,5-F2)][aThr]P[Pip]A[Pro(4R-Me)]; ester 2-C), the GI50 was 0.149 µM and the TGI is 13.4 µM.
`COc1ccc(C2CC(c3c(O)ccc4ccccc34)=NN2C(C)=O)cc1OC` (stereo not given) yielded a TGI of more than 100 µM.
Consider `O=C1/C(=C/c2ccc(O)c(O)c2)CCC/C1=C\c1ccc(O)c(O)c1`, for which the TGI came out at 22.2 µM.
Compound `C=C1C(=O)O[C@@H]2C(=O)[C@@H](C)CCC/C(C)=C/CC[C@@]3(C)O[C@@H]3C[C@@H]12` gave a TGI of more than 100 µM.
`NC(=O)NO.O.O.O.O.O.O.O.O.O.O.O.[Ge].[Ge].[Ge].[Ge].[Ge].[O]=[Ge].[O]=[Ge].[O]=[Ge].[O]=[Ge].[O]=[Ge][OH]`: the TGI is more than 100 µM.
In turn, `Nc1ccccc1S(=O)(=O)N(CC(=O)O)c1ccccc1` came in with a TGI of more than 100 µM.
The compound `CCN(CC)CCSc1c2ccccc2nc2cc(NCC(=O)Nc3ccccc3-c3ccccc3NC(=O)CNc3ccc4c(SCCN(CC)CC)c5ccccc5nc4c3)ccc12` registered a TGI of more than 100 µM.
With `CC(=O)[CH-]C(=O)c1ccccc1.CC(=O)[CH-]C(=O)c1ccccc1.CN(C)c1ccc([O-])cc1.CN(C)c1ccc([O-])cc1.Cl.[Ti+4]`, the GI50 is 25.8 µM and the TGI was more than 31.6 µM.
On to `CC(=O)OC1OC([C@@H]2c3cccc(O)c3C(=O)c3c(O)cc(C)cc32)C(O)C(O)C1O` (stereo not given in full), for which the GI50 was less than 0.0202 µM and the TGI came to 0.31 µM.
Compound `CCCC1C(=O)CCc2c(OC)ccc(OC)c21` (stereo not given) returned a TGI of more than 100 µM.
`CC(C)(C)N1CSC(=S)N(Cc2ccco2)C1` returned a TGI of 25.9 µM.
In the case of `CCOC1Oc2ccccc2C(=O)/C1=C/Nc1ccc(C(C)=O)cc1` (stereo not given), the GI50 was 21.9 µM and the TGI was found to be 60.3 µM.
The compound `CC(=O)OC1CC(OC2C(O)CC(OC3C(O)CC(OC4CCC5(C)C(CCC6C5CC(O)C5(C)C(C7=CC(=O)OC7)CCC65O)C4)OC3C)OC2C)OC(C)C1OC1OC(CO)C(O)C(O)C1O` (stereo not given) yielded a TGI of 0.363 µM.
Consider `N#CC1(C#N)N[C@@H](c2ccsc2)[C@H]2C(=O)N(c3ccccc3)C(=O)[C@H]21`, for which the TGI was more than 100 µM.
Take `CN(C)N=Nc1ccc(C(N)=O)cc1`: the TGI was more than 100 µM.
The compound `CCN(CC)N=Nc1c(C(N)=O)n[nH]c1C` gave a TGI of more than 100 µM.
Take `C1=C2/CC[C@H](Sc3ccccc3)C2C2(CCCCC/1)OCCO2` (stereo not given in full): the TGI was more than 100 µM.
For `O=C1CC(NC(=O)C(F)(F)F)c2c(Br)sc(N3CCNCC3)c21` (stereo not given), the TGI was more than 100 µM.
`CN1C(=O)C2CCC(=O)N2c2cccnc21` (stereo not given): the TGI was more than 100 µM.
`O=C(CCc1nc(=S)[nH][nH]1)Nc1cc(Cl)c(Cl)cc1Cl` yielded a TGI of more than 100 µM.
On to `Fc1[nH]nc2ccc([C@@H]3Nc4ccc5[nH]ncc5c4[C@H]4C5CCC(C5)[C@@H]34)cc12` (stereo not given in full), for which the GI50 was 4.93 µM and the TGI is 17.3 µM.
The compound `CC1(C)C(=O)/C=C\C(=O)C(C)(C)C2=CC=C(O2)C(C)(C)C(=O)/C=C\C(=O)C(C)(C)C2=CC=C1O2` had a TGI of more than 100 µM.
Same read-out and setting: then `CC(=O)O[C@@H]1[C@H](C(C)C)[C@@H](OC(C)=O)C/C(C)=C/CC[C@]2(C)O[C@@H]12`, with more than 100 µM; and `CC1(C)N=[N+]([O-])C1(C)C`, with more than 100 µM.
Still for that read-out and setting: the value for `O=c1c2cc([N+](=O)[O-])cnc2sn1-c1ccc([N+](=O)[O-])cc1` was more than 100 µM.
`C=CCOc1ccc2c(C)cc(=O)oc2c1C` gave a TGI of more than 100 µM.
